Hit rate of the full screen: of about 16,000 compounds, about 120 (0.75%) were called active. Inconclusive results (about 4%) are left out. Calls follow the shape of the dose curve; as a rule, active = well fitted inhibition curve with a large enough effect; inconclusive = small, poorly fitted or top-dose-only effect; inactive = no such curve, though single readings can be large or run the other way. Some of the results follow.
The compounds below were run against Rap guanine nucleotide exchange factor 3 (Homo sapiens) (UniProt O95398) (assay: Validation qHTS for antagonist of cAMP-regulated guanine nucleotide exchange factor 3 (EPAC1)). Conditions: EPAC1 Rap1B-BODIPY-GDP exchange, fluorescence; series mostly up to 150 µM; activity change, negative = inhibition: at the top concentration.
Chain of UniProt O95398 (O95398 whole entry, looked up): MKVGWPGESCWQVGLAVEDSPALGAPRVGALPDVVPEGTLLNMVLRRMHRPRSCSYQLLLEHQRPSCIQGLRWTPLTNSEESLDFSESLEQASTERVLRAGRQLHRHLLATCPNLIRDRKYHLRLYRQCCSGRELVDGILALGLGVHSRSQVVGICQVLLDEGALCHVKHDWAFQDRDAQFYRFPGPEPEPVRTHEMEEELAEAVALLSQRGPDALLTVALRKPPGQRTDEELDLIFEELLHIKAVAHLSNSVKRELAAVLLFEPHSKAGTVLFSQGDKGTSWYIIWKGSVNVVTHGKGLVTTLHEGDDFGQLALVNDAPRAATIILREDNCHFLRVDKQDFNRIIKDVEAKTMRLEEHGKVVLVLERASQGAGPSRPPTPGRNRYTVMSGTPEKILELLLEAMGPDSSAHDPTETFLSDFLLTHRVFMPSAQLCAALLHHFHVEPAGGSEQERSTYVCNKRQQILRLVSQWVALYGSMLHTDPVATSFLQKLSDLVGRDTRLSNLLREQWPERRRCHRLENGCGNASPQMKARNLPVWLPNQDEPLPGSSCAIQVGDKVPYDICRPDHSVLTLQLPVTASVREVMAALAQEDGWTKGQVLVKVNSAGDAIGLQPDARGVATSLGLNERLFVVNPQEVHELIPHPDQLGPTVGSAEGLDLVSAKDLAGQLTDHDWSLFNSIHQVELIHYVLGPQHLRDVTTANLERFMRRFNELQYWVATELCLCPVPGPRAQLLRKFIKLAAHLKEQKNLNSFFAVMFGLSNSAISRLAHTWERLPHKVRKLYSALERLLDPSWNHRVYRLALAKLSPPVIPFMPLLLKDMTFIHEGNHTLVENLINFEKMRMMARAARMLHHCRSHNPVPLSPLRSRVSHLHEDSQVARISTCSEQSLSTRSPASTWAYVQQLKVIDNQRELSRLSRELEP
Method in brief: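 EPAC1 (100 nM) mixed with 250 nM RAP1B-BODIPY-GDP and 50 uM GDP; compounds in concentration series, 5 min at room temperature. Fluorescence (ex 480/em 540 nm) read every 5 min for 30 min; normalized to ATA control and DMSO.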
Also: nearly all actives have a fitted effect of over 75% in size.

Activity change, negative = inhibition, inactive:
COc1cccc(Cn2c(=O)c(-c3ccc(Cl)cc3)nc3cnc(N4CCOCC4)nc32)c1 -6.74%, OC[C@]1(O)OC[C@@H](O)[C@H](O)[C@@H]1O 3.71%, Cc1occc1C(=O)NCCN1Cc2ccccc2OC(c2ccccc2F)C1 (stereo unspecified) -5.13%, Cc1ccc(S[C@@H](CCN2CC[C@H](NC(=O)OCc3ccccc3)CCC2=O)c2ccccc2)cc1 2.09%, C=C1C2CC[C@@]3(C)C(c4ccoc4)OC(=O)C[C@@]13OC1CC(=O)C(C)(C)C(CC(=O)OC)[C@]12C (stereo partly specified) 1.7%, COc1cc(=O)n2c(c1C(=O)N(C)Cc1nonc1C)CCN(C(=O)c1cc(C)cc(C)c1)CC2 -5.49%, Clc1ccccc1-c1nc(N2CCNCC2)c2ccccc2n1 22.3%, CC(=O)[C@@H]1[C@H]2[C@H](C(=O)[C@H]3OC[C@@H]2O3)[C@H]2C=Cc3ccccc3N21 12.5%, CCC1COCCS(=O)(=O)N1Cc1ccc(C)cc1 (stereo unspecified) 0.883%, N#Cc1ccc(CN2CCCC3(CCN(S(=O)(=O)c4ccccc4)CC3)C2)cc1 -1.49%, COc1ccc2c(c1)CCc1cnc(-n3ncc(C(=O)N4CCN(CCO)CC4)c3C3CC3)nc1-2 14.9%, Nc1ccc(O)c([N+](=O)[O-])c1 -15.1% [at 320 µM], CCO/C([O-])=N/c1c[n+](N2CCOCC2)no1, O=C(Nc1cccc(F)c1)N1CC[C@@]2(CCCNC2)C1 32.5%, CCc1c(C)[nH]c2c1C(=O)C(CN1CCOCC1)CC2 (stereo unspecified), CC(=O)OCC1OC(Oc2cc(OC(C)=O)c3c(=O)cc(-c4ccc(OC(C)=O)c(OC(C)=O)c4)oc3c2)C(OC(C)=O)C(OC(C)=O)C1OC(C)=O (stereo unspecified) -16.4%, COc1ccc(-c2nc3cnc(N4CCN(C)CC4)nc3n(Cc3cccs3)c2=O)cc1 27.9%, NC(=O)CNCCC(c1ccccc1)c1ccccc1 15.8% [at 75.8 µM], COc1cccc(N2[C@@H](CC(C)=O)c3cc(C(F)(F)F)ccc3S2(=O)=O)c1 -4.99%, CC(O)C(O)[C@H]1CNc2nc(N)[nH]c(=O)c2N1 (stereo partly specified) 5.84% [at 75.8 µM], CCCCCC#CCC#CCC#CCC#CCCCC(=O)O, CC1=C(C(=O)O)N2C(=O)C(NC(=O)C(N)c3ccc(O)cc3)C2SC1 (stereo unspecified) 9.48%, CN(C)c1ccc(-c2cncnc2NCc2cccnc2)cc1 0.696%, NC[C@@H]1CC[C@@H](N)[C@@H](O[C@H]2[C@H](O)[C@@H](O[C@H]3O[C@H](CO)[C@@H](O)[C@H](N)[C@H]3O)[C@H](N)C[C@@H]2N)O1 23.5%, CN1CCN(c2ncc3nc(-c4ccccc4)c(=O)n(Cc4cccs4)c3n2)CC1 -3.53%, Cc1noc(C)c1C(=O)N1CCC2(CC1)CCN(C(c1ccccc1)c1ccccc1)CC2 11.1%, COCCn1c(=O)c(-c2ccc(OC)cc2)nc2cnc(Nc3cccc(OC)c3)nc21 36.3%, CC(=O)OC1CC2C(C)(C)C(=O)C3OC3[C@]2(C)C2CC[C@@]3(C)C(c4ccoc4)OC(=O)C4OC43[C@]12C (stereo partly specified) -2.43%, CNC(=O)CN(CCN(CCN(CC(=O)[O-])CC(=O)NC)CC(=O)[O-])CC(=O)[O-].O.[Gd+3], Cn1cc(C(F)(F)F)nc1-c1ccc(OC[C@@H](O)CNCCOc2ccc(O)c(C(N)=O)c2)cc1 7.86%, CC1(C)CC[C@]2(C(=O)O)C(O)C[C@@]3(C)C(=CCC4[C@@]5(C)CCC(O)C(C)(C)C5CC[C@@]43C)C2C1 (stereo partly specified) 16.6%, O=C(/C=C/c1ccc(O)c(O)c1)O[C@@H]1C[C@@](OC(=O)/C=C/c2ccc(O)c(O)c2)(C(=O)O)C[C@@H](O)[C@@H]1O -11.1%, CN1CCCC2(CCN(C(=O)c3cccn3C)CC2)C1 8.06%, CC(C)=CCC/C(C)=C/C=C/C(C)=C/C=C/C(C)=C/C=C/C=C(C)/C=C/C=C(C)/C=C/C=C(\C)CCC=C(C)C 18.1%, CC1=C(/C=C/C(C)=C/C=C/C(C)=C/C(=O)O)C(C)(C)CCC1, COCC(=O)Nc1cc(C(=O)N2CCCOc3c(cccc3OC)C2)c2c(c1)nc(C1CCC1)n2C -6.55%, CCNc1ncc2nc(-c3cccs3)c(=O)n(CCC#N)c2n1 3.25%, NCC1O[C@@H](OC2C(N)CC(N)C(O)C2O[C@@H]2OC(CO)C(O)C2O)C(N)C(O)C1O (stereo partly specified) -1.69%, O=c1[nH]c(=O)n([C@@H]2O[C@H](CO)[C@@H](O)[C@H]2O)cc1Br -6.58%, Cc1cnc(C)c(-c2cc(F)cc3c2OC(CNC(=O)C2CCOC2)C3)n1 (stereo unspecified) -0.911%, COc1ccc2ccc(=O)oc2c1CC=C(C)C 2.22%, Cc1cccc(CNc2nc(-c3ccoc3)nc3ccccc23)c1 10.8%, OCCN1CCN(Cc2ccc3c(c2)CN(Cc2ccc4ccccc4c2)CCO3)CC1 8.36%, CC1(C)S[C@@H]2[C@H](NC(=O)[C@@H](NC(=O)N3CCNC3=O)c3ccccc3)C(=O)N2[C@H]1C(=O)O 17.9% [at 75.8 µM], COc1cc(=O)n2c(c1C(=O)NCc1ccc3c(c1)OCO3)CCN(C(=O)c1cccc(F)c1)CC2 18.4%, CC(=O)Oc1ccccc1C(=O)O, O=C(c1ccco1)N1CCC[C@@]2(CCN(c3ccccc3)C2)C1 8.71%, O=C(O)[C@H]1NCCC[C@H]1C(=O)O 8.77% [at 75.8 µM], c1ccc2c(-n3ccnc3)nc(-c3ccoc3)nc2c1 13%, NCCC(=O)[N-][C@@H](Cc1cnc[nH]1)C(=O)O.[Zn] 38.8%, COCC(=O)Nc1cc(C(=O)N[C@H]2CCCCNC2=O)c2c(c1)nc(-c1ccncc1)n2C -18.6%, Cc1cc(C(=O)NCC2Cc3cccc(-c4cncnc4)c3O2)c(C)o1 (stereo unspecified) 13.9%, COc1cc(Cl)c(CN2CCOc3ccc(CN4CCCCC4CO)cc3C2)cc1OC (stereo unspecified) 25.7%, NCCCCN=C(N)N, O=c1c(-c2ccc(F)c(F)c2)nc2cncnc2n1Cc1ccc(F)cc1 -10.2%, CNS(=O)(=O)CCc1ccc2[nH]cc(C3CCN(C)CC3)c2c1 27.8%, O=c1c(-c2ccccc2)nc2cncnc2n1C1CC1 4.89%, OC(CN1CCC(Cc2ccc(F)cc2)CC1)c1ccc(Cl)cc1 (stereo unspecified), CC(C)NC[C@@H](O)c1ccc(O)c(O)c1 7.31% [at 75.8 µM], CCOC(=O)[C@@]12C[C@@H]1/C(=N/O)c1ccccc1O2 2.32%, NC(Cc1cc(I)c(Oc2cc(I)c(O)c(I)c2)c(I)c1)C(=O)O (stereo unspecified) -5.72%

— PubChem BioAssay AID1645882 (National Center for Advancing Translational Sciences (NCATS), 2021)
